Targets include Flag-HP1γ (human) (UniProt Q13185); Flag-HP1α (human) (UniProt P45973); Flag-HP1β (human) (UniProt P83916); Flag-HP1γ (V32M) (human) (UniProt Q13185); Flag-HP1γ (ΔCSD) (human) (UniProt Q13185); Flag-HP1γ (CSD) (human) (UniProt Q13185).
Common to all, as to experiment: co-IP; Flag-HP1 forms co-expressed with KDM2A forms in 293T cells; lysate in 0.1% Triton X-100, 300 mM NaCl, 300 mM sucrose, 1 mM MgCl2, 1 mM EGTA, 10 mM PIPES pH 7.0; precipitated with anti-Flag agarose; Western blot with anti-KDM2A (ab99242), anti-GFP and anti-Flag

Sequences of proteins named here, by UniProt entry; tags and fusion partners are left off. A change or cut given only in a name is not applied to a line headed by its entry. Residues count along the entry.
UniProt Q13185: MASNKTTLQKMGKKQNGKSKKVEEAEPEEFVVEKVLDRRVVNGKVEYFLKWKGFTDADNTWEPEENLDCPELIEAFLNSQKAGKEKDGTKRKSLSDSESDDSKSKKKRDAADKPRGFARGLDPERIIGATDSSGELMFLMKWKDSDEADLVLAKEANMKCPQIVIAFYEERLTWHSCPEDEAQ
Flag-HP1γ (ΔCSD): residues 1-115 of Q13185
Flag-HP1γ (CSD): residues 110-183 of Q13185
UniProt P45973: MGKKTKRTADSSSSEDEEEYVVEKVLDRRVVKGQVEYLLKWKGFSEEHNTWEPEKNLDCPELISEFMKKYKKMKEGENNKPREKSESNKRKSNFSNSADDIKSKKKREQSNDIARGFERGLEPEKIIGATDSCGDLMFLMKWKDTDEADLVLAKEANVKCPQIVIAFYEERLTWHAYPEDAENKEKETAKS
UniProt P83916: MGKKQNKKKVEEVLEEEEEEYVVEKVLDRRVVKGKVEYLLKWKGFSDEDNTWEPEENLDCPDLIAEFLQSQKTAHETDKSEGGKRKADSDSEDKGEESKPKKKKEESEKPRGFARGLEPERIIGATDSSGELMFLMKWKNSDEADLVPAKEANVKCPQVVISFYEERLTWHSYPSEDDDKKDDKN

Results are given in words; binding and its absence hold for the method and conditions named. Binding seen in cells or lysates may run through a third protein. Some binding calls cover weakened binding; strength is not graded here. For part of these data: Tags and fused reporters may be left off the sequences shown.

B1: GFP-KDM2A (amino acids 667–1162) (domain or fragment, UniProt Q9Y2K7 667-1162)
chain: PNCWECPKCYQEDSSEKAQKRKMEESDEEAVQAKVLRPLRSCDEPLTPPPHSPTSMLQLIHDPVSPRGMVTRSSPGAGPSDHHSASRDERFKRRQLLRLQATERTMVREKENNPSGKKELSEVEKAKIRGSYLTVTLQRPTKELHGTSIVPKLQAITASSANLRHSPRVLVQHCPARTPQRGDEEGLGGEEEEEEEEEEEDDSAEEGGAARLNGRGSWAQDGDESWMQREVWMSVFRYLSRRELCECMRVCKTWYKWCCDKRLWTKIDLSRCKAIVPQALSGIIKRQPVSLDLSWTNISKKQLTWLVNRLPGLKDLLLAGCSWSAVSALSTSSCPLLRTLDLRWAVGIKDPQIRDLLTPPADKPGQDNRSKLRNMTDFRLAGLDITDATLRLIIRHMPLLSRLDLSHCSHLTDQSSNLLTAVGSSTRYSLTELNMAGCNKLTDQTLIYLRRIANVTLIDLRGCKQITRKACEHFISDLSINSLYCLSDEKLIQKIS
Consider B1, for which the binding result with Flag-HP1γ (human), with Flag-HP1α (human) and with Flag-HP1β (human) was “binds” throughout.

B2: GFP-KDM2A (667–1162) lacking NoLS-3 (amino acids 947–1162) (domain or fragment, UniProt Q9Y2K7 667-946)
chain: PNCWECPKCYQEDSSEKAQKRKMEESDEEAVQAKVLRPLRSCDEPLTPPPHSPTSMLQLIHDPVSPRGMVTRSSPGAGPSDHHSASRDERFKRRQLLRLQATERTMVREKENNPSGKKELSEVEKAKIRGSYLTVTLQRPTKELHGTSIVPKLQAITASSANLRHSPRVLVQHCPARTPQRGDEEGLGGEEEEEEEEEEEDDSAEEGGAARLNGRGSWAQDGDESWMQREVWMSVFRYLSRRELCECMRVCKTWYKWCCDKRLWTKIDLSRCKAIVPQAL
Regarding B2, in the assay with Flag-HP1γ (human), the binding entry is “binds”.

B3: KDM2A (protein, UniProt Q9Y2K7 1-1162)
chain: MEPEEERIRYSQRLRGTMRRRYEDDGISDDEIEGKRTFDLEEKLHTNKYNANFVTFMEGKDFNVEYIQRGGLRDPLIFKNSDGLGIKMPDPDFTVNDVKMCVGSRRMVDVMDVNTQKGIEMTMAQWTRYYETPEEEREKLYNVISLEFSHTRLENMVQRPSTVDFIDWVDNMWPRHLKESQTESTNAILEMQYPKVQKYCLMSVRGCYTDFHVDFGGTSVWYHIHQGGKVFWLIPPTAHNLELYENWLLSGKQGDIFLGDRVSDCQRIELKQGYTFVIPSGWIHAVYTPTDTLVFGGNFLHSFNIPMQLKIYNIEDRTRVPNKFRYPFYYEMCWYVLERYVYCITNRSHLTKEFQKESLSMDLELNGLESGNGDEEAVDREPRRLSSRRSVLTSPVANGVNLDYDGLGKTCRSLPSLKKTLAGDSSSDCSRGSHNGQVWDPQCAPRKDRQVHLTHFELEGLRCLVDKLESLPLHKKCVPTGIEDEDALIADVKILLEELANSDPKLALTGVPIVQWPKRDKLKFPTRPKVRVPTIPITKPHTMKPAPRLTPVRPAAASPIVSGARRRRVRCRKCKACVQGECGVCHYCRDMKKFGGPGRMKQSCVLRQCLAPRLPHSVTCSLCGEVDQNEETQDFEKKLMECCICNEIVHPGCLQMDGEGLLNEELPNCWECPKCYQEDSSEKAQKRKMEESDEEAVQAKVLRPLRSCDEPLTPPPHSPTSMLQLIHDPVSPRGMVTRSSPGAGPSDHHSASRDERFKRRQLLRLQATERTMVREKENNPSGKKELSEVEKAKIRGSYLTVTLQRPTKELHGTSIVPKLQAITASSANLRHSPRVLVQHCPARTPQRGDEEGLGGEEEEEEEEEEEDDSAEEGGAARLNGRGSWAQDGDESWMQREVWMSVFRYLSRRELCECMRVCKTWYKWCCDKRLWTKIDLSRCKAIVPQALSGIIKRQPVSLDLSWTNISKKQLTWLVNRLPGLKDLLLAGCSWSAVSALSTSSCPLLRTLDLRWAVGIKDPQIRDLLTPPADKPGQDNRSKLRNMTDFRLAGLDITDATLRLIIRHMPLLSRLDLSHCSHLTDQSSNLLTAVGSSTRYSLTELNMAGCNKLTDQTLIYLRRIANVTLIDLRGCKQITRKACEHFISDLSINSLYCLSDEKLIQKIS
With B3, the binding entry with Flag-HP1γ (V32M) (human), with Flag-HP1γ (human), with Flag-HP1α (human) and in the assay with Flag-HP1β (human) was “binds” throughout.

B4: mutant KDM2A (V801E) (protein, UniProt Q9Y2K7 1-1162)
chain: MEPEEERIRYSQRLRGTMRRRYEDDGISDDEIEGKRTFDLEEKLHTNKYNANFVTFMEGKDFNVEYIQRGGLRDPLIFKNSDGLGIKMPDPDFTVNDVKMCVGSRRMVDVMDVNTQKGIEMTMAQWTRYYETPEEEREKLYNVISLEFSHTRLENMVQRPSTVDFIDWVDNMWPRHLKESQTESTNAILEMQYPKVQKYCLMSVRGCYTDFHVDFGGTSVWYHIHQGGKVFWLIPPTAHNLELYENWLLSGKQGDIFLGDRVSDCQRIELKQGYTFVIPSGWIHAVYTPTDTLVFGGNFLHSFNIPMQLKIYNIEDRTRVPNKFRYPFYYEMCWYVLERYVYCITNRSHLTKEFQKESLSMDLELNGLESGNGDEEAVDREPRRLSSRRSVLTSPVANGVNLDYDGLGKTCRSLPSLKKTLAGDSSSDCSRGSHNGQVWDPQCAPRKDRQVHLTHFELEGLRCLVDKLESLPLHKKCVPTGIEDEDALIADVKILLEELANSDPKLALTGVPIVQWPKRDKLKFPTRPKVRVPTIPITKPHTMKPAPRLTPVRPAAASPIVSGARRRRVRCRKCKACVQGECGVCHYCRDMKKFGGPGRMKQSCVLRQCLAPRLPHSVTCSLCGEVDQNEETQDFEKKLMECCICNEIVHPGCLQMDGEGLLNEELPNCWECPKCYQEDSSEKAQKRKMEESDEEAVQAKVLRPLRSCDEPLTPPPHSPTSMLQLIHDPVSPRGMVTRSSPGAGPSDHHSASRDERFKRRQLLRLQATERTMVREKENNPSGKKELSEVEKAKIRGSYLTETLQRPTKELHGTSIVPKLQAITASSANLRHSPRVLVQHCPARTPQRGDEEGLGGEEEEEEEEEEEDDSAEEGGAARLNGRGSWAQDGDESWMQREVWMSVFRYLSRRELCECMRVCKTWYKWCCDKRLWTKIDLSRCKAIVPQALSGIIKRQPVSLDLSWTNISKKQLTWLVNRLPGLKDLLLAGCSWSAVSALSTSSCPLLRTLDLRWAVGIKDPQIRDLLTPPADKPGQDNRSKLRNMTDFRLAGLDITDATLRLIIRHMPLLSRLDLSHCSHLTDQSSNLLTAVGSSTRYSLTELNMAGCNKLTDQTLIYLRRIANVTLIDLRGCKQITRKACEHFISDLSINSLYCLSDEKLIQKIS
Take B4: in the assay with Flag-HP1γ (human), the binding result was “no binding”.

B5: GFP fusion protein with KDM2A (amino acids 785–810) (domain or fragment, UniProt Q9Y2K7 785-810)
chain: ELSEVEKAKIRGSYLTVTLQRPTKEL
Regarding B5, in the assay with Flag-HP1γ (human), the binding entry is “binds”.

B6: GFP-KDM2A (667–1162) lacking amino acids 818–943 (domain or fragment, UniProt Q9Y2K7)
chain: PNCWECPKCYQEDSSEKAQKRKMEESDEEAVQAKVLRPLRSCDEPLTPPPHSPTSMLQLIHDPVSPRGMVTRSSPGAGPSDHHSASRDERFKRRQLLRLQATERTMVREKENNPSGKKELSEVEKAKIRGSYLTVTLQRPTKELHGTSIVPQALSGIIKRQPVSLDLSWTNISKKQLTWLVNRLPGLKDLLLAGCSWSAVSALSTSSCPLLRTLDLRWAVGIKDPQIRDLLTPPADKPGQDNRSKLRNMTDFRLAGLDITDATLRLIIRHMPLLSRLDLSHCSHLTDQSSNLLTAVGSSTRYSLTELNMAGCNKLTDQTLIYLRRIANVTLIDLRGCKQITRKACEHFISDLSINSLYCLSDEKLIQKIS
Take B6: in the assay with Flag-HP1γ (human), the binding result was “binds”.

B7: GFP fusion protein with KDM2A (amino acids 785–817) (domain or fragment, UniProt Q9Y2K7 785-817)
chain: ELSEVEKAKIRGSYLTVTLQRPTKELHGTSIVP
As to B7, the binding entry in the assay with Flag-HP1γ (ΔCSD) (human) was “no binding”; in the assay with Flag-HP1γ (human), “binds”; with Flag-HP1γ (CSD) (human), “binds”.

B8: GFP fusion protein with the KDM2A fragment (amino acids 785–817, V801E) (domain or fragment, UniProt Q9Y2K7 785-817)
chain: ELSEVEKAKIRGSYLTETLQRPTKELHGTSIVP
As to B8, the binding entry with Flag-HP1γ (human) is reported as “no binding”.

B9: SF-KDM2A (amino acids 543–1162) (protein, UniProt Q9Y2K7 543-1162)
chain: MKPAPRLTPVRPAAASPIVSGARRRRVRCRKCKACVQGECGVCHYCRDMKKFGGPGRMKQSCVLRQCLAPRLPHSVTCSLCGEVDQNEETQDFEKKLMECCICNEIVHPGCLQMDGEGLLNEELPNCWECPKCYQEDSSEKAQKRKMEESDEEAVQAKVLRPLRSCDEPLTPPPHSPTSMLQLIHDPVSPRGMVTRSSPGAGPSDHHSASRDERFKRRQLLRLQATERTMVREKENNPSGKKELSEVEKAKIRGSYLTVTLQRPTKELHGTSIVPKLQAITASSANLRHSPRVLVQHCPARTPQRGDEEGLGGEEEEEEEEEEEDDSAEEGGAARLNGRGSWAQDGDESWMQREVWMSVFRYLSRRELCECMRVCKTWYKWCCDKRLWTKIDLSRCKAIVPQALSGIIKRQPVSLDLSWTNISKKQLTWLVNRLPGLKDLLLAGCSWSAVSALSTSSCPLLRTLDLRWAVGIKDPQIRDLLTPPADKPGQDNRSKLRNMTDFRLAGLDITDATLRLIIRHMPLLSRLDLSHCSHLTDQSSNLLTAVGSSTRYSLTELNMAGCNKLTDQTLIYLRRIANVTLIDLRGCKQITRKACEHFISDLSINSLYCLSDEKLIQKIS
For the molecule B9, the binding result with Flag-HP1γ (human), in the assay with Flag-HP1α (human) and in the assay with Flag-HP1β (human) was “binds” each time.
